Results: article PMC10293653 (International Journal of Biological Macromolecules, 2023)

Experiments:
ACE2-RBD interaction = ACE2-RBD interaction (Homo sapiens, UniProt Q9BYF1); assay: RBD-ACE2 binding assay, confocal co-localization in Calu-3 cells; assay type: cell-based
Mpro of SARS-CoV-2 = Mpro of SARS-CoV-2 (Severe acute respiratory syndrome coronavirus 2, UniProt P0DTD1); assay: Main protease; assay type: biochemical; conditions: read-out: inhibition of Mpro

Compound	interaction of ACE2 with RBD (confocal) (ACE2-RBD interaction)	inhibition at 100 µM (Mpro of SARS-CoV-2) [%]
CC#CCn1c(N2CCC[C@@H](N)C2)nc2c1c(=O)n(Cc1nc(C)c3ccccc3n1)c(=O)n2C [Linagliptin, linagliptin]	hampered the interaction of ACE2 with RBD	
N[C@@H](CC(=O)N1CCn2c(nnc2C(F)(F)F)C1)Cc1cc(F)c(F)cc1F [Sitagliptin, sitagliptin]	hampered the interaction of ACE2 with RBD	21.45 ± 0.13
